Source: patent US20250368649A1, “TETRAHYDROPYRIDOPYRIMIDINE PAN-KRAS INHIBITORS” (Mirati Therapeutics, Inc., priority 2022, published 2025)

How the values were obtained:
Assay type in all cases: cell-based
HCT116 cells = experiment: Inhibition of KRas-mediated phosphorylation of ERK (Cisbio HTRF pERK), HCT116 cells; details: Homo sapiens; for inhibition at 0.1 µM: HCT-116, single point at 100 nM, 3 hrs compound incubation; for IC50: HCT-116, 3 h, 3 hr compound incubation, Cisbio pERK HTRF
H358 cells = experiment: Inhibition of KRas-mediated phosphorylation of ERK (Cisbio HTRF pERK), H358 cells; details: Homo sapiens; for inhibition at 0.1 µM: NCI-H358, single point at 100 nM, 3 hrs compound incubation; for IC50: NCI-H358, 3 h, 3 hr compound incubation, Cisbio pERK HTRF
H460 cells = experiment: Inhibition of KRas-mediated phosphorylation of ERK (Cisbio HTRF pERK), H460 cells; details: Homo sapiens; for inhibition at 0.1 µM: NCI-H460, single point at 100 nM, 3 hrs compound incubation; for IC50: NCI-H460, 3 h, 3 hr compound incubation, Cisbio pERK HTRF
MKN1 cells = experiment: Inhibition of KRas-mediated phosphorylation of ERK (Cisbio HTRF pERK), MKN1 cells; details: Homo sapiens, MKN-1, 3 hour compound incubation
Experimental: (§1) Inhibition of KRas Phosphorylation of ERK (HTRF) by Exemplary Compounds of Formula (I) Cisbio HTRF Advanced pERK Assay Catalog #64AERPEH • Cells: MKN1, PSN1 • Procedure: • Day 1: Seed 6,000 cells/well -25 µl/well in 384-well white solid bottom plate; RPM1_10% FBS.

A549 cells = experiment: Inhibition of KRas-mediated phosphorylation of ERK (Cisbio HTRF pERK), A549 cells; details: Homo sapiens; for inhibition at 0.1 µM: single point at 100 nM, 3 hrs compound incubation; for IC50: A549, 3 h, 3 hr compound incubation, Cisbio pERK HTRF
PSN1 cells = experiment: Inhibition of KRas-mediated phosphorylation of ERK (Cisbio HTRF pERK), PSN1 cells; details: Homo sapiens, PSN1, 3 h, 3 hour compound incubation, Cisbio pERK HTRF
Experimental: as §1

ASPC1 cells = experiment: Inhibition of KRas-mediated phosphorylation of ERK (Cisbio HTRF pERK), ASPC1 cells; details: Homo sapiens, ASPC1, 3 h, AsPC-1 cells; 3 hr compound incubation; Cisbio pERK HTRF
H727 cells = experiment: Inhibition of KRas-mediated phosphorylation of ERK (Cisbio HTRF pERK), H727 cells; details: Homo sapiens, NCI-H727, 3 h, 3 hr compound incubation, Cisbio pERK HTRF

IC50 (MKN1 cells) | IC50 (PSN1 cells) | IC50 (ASPC1 cells) | IC50 (H727 cells) | IC50 (HCT116 cells) | IC50 (H358 cells) | IC50 (H460 cells) | IC50 (A549 cells) | Compound | inhibition at 0.1 µM (HCT116 cells) | inhibition at 0.1 µM (H358 cells) | inhibition at 0.1 µM (H460 cells) | inhibition at 0.1 µM (A549 cells)
510 nM | > 10000 nM | 528 nM | 1930 nM |  |  |  |  | CCc1c(F)ccc2cc(O)cc(N3CCc4c(nc(OC[C@@]56CCCN5C[C@H](F)C6)nc4N4CCCn5nc(N(C)C(=O)N(C)C)cc5C4)C3)c12 [Example 272, 1-(5-(7-(8-ethyl-7-fluoro-3-hydroxynaphthalen-1-yl)-2-(((2R,7aS)-2-fluorohexahydro-1H-pyrrolizin-7a-yl)methoxy)-5,6,7,8-tetrahydropyrido[3,4-d]pyrimidin-4-yl)-5,6,7,8-tetrahydro-4H-pyrazolo[1,5-a][1,4]diazepin-2-yl)-1,3,3-trimethylurea] | 19% | -5% | 22% | -15%
218 nM | > 10000 nM | 202 nM | 239 nM |  |  |  |  | CCc1c(F)ccc2cc(O)cc(N3CCc4c(nc(OC[C@@]56CCCN5C[C@H](F)C6)nc4N4CCCn5nc(C(=O)N6CC7CNCC7C6)cc5C4)C3)c12 (stereo partly drawn) [Example 273, (5-(7-(8-ethyl-7-fluoro-3-hydroxynaphthalen-1-yl)-2-(((2R,7aS)-2-fluorohexahydro-1H-pyrrolizin-7a-yl)methoxy)-5,6,7,8-tetrahydropyrido[3,4-d]pyrimidin-4-yl)-5,6,7,8-tetrahydro-4H-pyrazolo[1,5-a][1,4]diazepin-2-yl)(hexahydropyrrolo[3,4-c]pyrrol-2(1H)-yl)methanone] | 10% | 6% | 5% | 22%
144 nM | > 10000 nM | 37 nM | 297 nM |  |  |  |  | CCc1c(F)ccc2cc(O)cc(N3CCc4c(nc(OC[C@@]56CCCN5C[C@H](F)C6)nc4N4CCCn5nc(C(=O)N6CCC7(CCCN7)C6)cc5C4)C3)c12 (stereo partly drawn) [Example 276, (5-(7-(8-ethyl-7-fluoro-3-hydroxynaphthalen-1-yl)-2-(((2R,7aS)-2-fluorohexahydro-1H-pyrrolizin-7a-yl)methoxy)-5,6,7,8-tetrahydropyrido[3,4-d]pyrimidin-4-yl)-5,6,7,8-tetrahydro-4H-pyrazolo[1,5-a][1,4]diazepin-2-yl)(1,7-diazaspiro[4.4]nonan-7-yl)methanone] | -1% | 42% | -17% | 16%
9.1 nM | 2970 nM | 5 nM | 9 nM | 179 nM | 5 nM | 42 nM | 18 nM | CCc1c(F)ccc2cc(O)cc(N3CCc4c(nc(OC[C@@]56CCCN5C[C@H](F)C6)nc4N4CCCn5nc(C(=O)N6CC7CCC6C7)cc5C4)C3)c12 (stereo partly drawn) [Example 307, 2-azabicyclo[2.2.1]heptan-2-yl(5-(7-(8-ethyl-7-fluoro-3-hydroxynaphthalen-1-yl)-2-(((2R,7aS)-2-fluorohexahydro-1H-pyrrolizin-7a-yl)methoxy)-5,6,7,8-tetrahydropyrido[3,4-d]pyrimidin-4-yl)-5,6,7,8-tetrahydro-4H-pyrazolo[1,5-a][1,4]diazepin-2-yl)methanone] | 53% | 102% | 82% | 76%
11 nM | 3480 nM | 13 nM | 13 nM |  |  |  |  | CCc1c(F)ccc2cc(O)cc(N3CCc4c(nc(OC[C@@]56CCCN5C[C@H](F)C6)nc4N4CCCn5nc(C(N)=O)cc5C4)C3)c12 [Example 308, 5-(7-(8-ethyl-7-fluoro-3-hydroxynaphthalen-1-yl)-2-(((2R,7aS)-2-fluorohexahydro-1H-pyrrolizin-7a-yl)methoxy)-5,6,7,8-tetrahydropyrido[3,4-d]pyrimidin-4-yl)-5,6,7,8-tetrahydro-4H-pyrazolo[1,5-a][1,4]diazepine-2-carboxamide] | 23% | 93% | 41% | 62%
1.5 nM | 1840 nM |  |  | 264 nM | 27 nM | 151 nM | 283 nM | O=C1NC(=O)[C@]2(CCCN(c3nc(OC[C@@]45CCCN4C[C@H](F)C5)nc4c3CCN(c3c(C5CC5)c(Cl)cc5[nH]ncc35)C4)C2)N1 [Example 470, (R)-7-(7-(6-chloro-5-cyclopropyl-1H-indazol-4-yl)-2-(((2R,7aS)-2-fluorohexahydro-1H-pyrrolizin-7a-yl)methoxy)-5,6,7,8-tetrahydropyrido[3,4-d]pyrimidin-4-yl)-1,3,7-triazaspiro[4.5]decane-2,4-dione] | -5% | 77% | 39% | 33%
